According to patent publication US6426068B1, “Therapeutic uses of heterologous superoxide dismutase (HSD), and method for selecting said HSD” (Fractales Biotech, priority 1998, dated 2002):

The compounds below were run on U937 cells which are chronically infected with HIV-1 (U1 cells).
Type: cell-based, human

Row | SMILES | % of apoptosis [%]
1 | CC(C)c1nc(CN(C)C(=O)N[C@H](C(=O)N[C@@H](Cc2ccccc2)C[C@H](O)[C@H](Cc2ccccc2)NC(=O)OCc2cncs2)C(C)C)cs1 [Ritonavir] | 15 ± 2
2 | Cc1cn([C@H]2C[C@H](N=[N+]=[N-])[C@@H](CO)O2)c(=O)[nH]c1=O [AZT, Zinovudine] | 45 ± 2
3 | CC(C)(C)NC(=O)[C@@H]1C[C@@H]2CCCC[C@@H]2CN1C[C@@H](O)[C@H](Cc1ccccc1)NC(=O)[C@H](CC(N)=O)NC(=O)c1ccc2ccccc2n1 [Saquinavir] | 15 ± 2
